# Test results reported in publication PMC4336329 (PLoS ONE, 2015).
# Hit rate of the full screen: of about 310,000 compounds, about 14,000 (4.5%) showed an effect of 50% or more. Effects have a minus sign here. The list shows a part of the results.
# Target: human ether-à-go-go-related gene (hERG) potassium channel (human, UniProt Q12809)
# Test: primary screen, population patch clamp on CHO cells stably expressing hERG
# 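Further: peak tail current of the secondary pulse compared with the same well before compound.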
# human ether-à-go-go-related gene (hERG) potassium channel, sequence (Q12809 whole entry, looked up): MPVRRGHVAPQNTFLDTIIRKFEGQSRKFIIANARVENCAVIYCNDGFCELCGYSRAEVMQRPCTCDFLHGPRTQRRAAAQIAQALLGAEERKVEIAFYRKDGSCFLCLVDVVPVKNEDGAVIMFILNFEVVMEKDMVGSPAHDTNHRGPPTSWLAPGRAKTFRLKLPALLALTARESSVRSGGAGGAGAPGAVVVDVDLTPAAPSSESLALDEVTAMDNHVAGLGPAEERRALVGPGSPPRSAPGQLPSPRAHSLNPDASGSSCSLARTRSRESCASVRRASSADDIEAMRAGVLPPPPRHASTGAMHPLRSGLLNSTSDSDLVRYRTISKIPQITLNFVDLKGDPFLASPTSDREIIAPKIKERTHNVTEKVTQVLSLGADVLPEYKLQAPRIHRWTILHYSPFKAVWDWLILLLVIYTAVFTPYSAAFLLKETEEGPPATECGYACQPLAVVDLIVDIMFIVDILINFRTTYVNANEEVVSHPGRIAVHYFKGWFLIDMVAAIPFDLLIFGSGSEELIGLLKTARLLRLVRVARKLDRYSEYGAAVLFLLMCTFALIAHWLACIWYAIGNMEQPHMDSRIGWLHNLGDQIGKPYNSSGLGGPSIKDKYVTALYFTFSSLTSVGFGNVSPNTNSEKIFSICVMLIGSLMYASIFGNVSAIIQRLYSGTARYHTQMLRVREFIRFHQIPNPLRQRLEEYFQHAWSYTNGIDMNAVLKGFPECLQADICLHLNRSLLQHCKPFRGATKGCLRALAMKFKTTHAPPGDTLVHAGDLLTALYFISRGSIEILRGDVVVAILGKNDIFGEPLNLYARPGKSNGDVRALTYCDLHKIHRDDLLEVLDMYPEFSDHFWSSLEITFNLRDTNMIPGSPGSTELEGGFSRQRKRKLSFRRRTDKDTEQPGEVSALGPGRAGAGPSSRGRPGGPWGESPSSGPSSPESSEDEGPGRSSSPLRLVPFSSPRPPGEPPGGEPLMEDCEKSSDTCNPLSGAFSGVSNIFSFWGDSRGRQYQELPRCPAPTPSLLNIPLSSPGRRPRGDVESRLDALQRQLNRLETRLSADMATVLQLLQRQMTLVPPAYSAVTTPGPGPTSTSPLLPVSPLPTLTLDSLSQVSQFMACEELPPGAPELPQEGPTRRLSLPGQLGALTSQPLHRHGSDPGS
row,Structure (SMILES),"hERG current change (%, negative = inhibition) at 10uM"
1,Cn1c(=O)c2c(SCc3ccccn3)nc(CC(C)(C)C)nc2n(C)c1=O,-79.4%
2,NC(=O)C1CCN(C(=O)c2ccc3c(=O)n(Cc4cccc(Br)c4)c(=S)[nH]c3c2)CC1,-2.2%
3,O=C(NC1CCSc2ccccc21)c1cccc(S(=O)(=O)N2CCOCC2)c1 (centres unmarked),5.42%
4,Cc1noc(C)c1CSc1nnc(-c2cc(Cl)ccc2Cl)n1N,4.95%
5,CC(OC(=O)c1ccc(Cl)nc1)C(=O)NCc1ccc2c(c1)OCO2 (centres unmarked),-9.49%
6,O=C(O)C(=O)O.c1ccc(COc2ccc(OCCCCN3CCCCC3)cc2)cc1,-70.5%
7,O=C(C1=C[C@H](c2ccc(C(F)(F)F)cc2)C[C@H](OCc2ccc(CO)cc2)O1)N1CCCCCCC1,-17.7%
8,CCOC(=O)N1CCN(S(=O)(=O)c2ccc3c(c2)CC(C)N3C(=O)C2CC2)CC1 (centres unmarked),9.17%
9,O=C(CSc1cnc2ccccc2n1)NC1CCCC1,-8.88%
10,Cl.c1ccc(NNC2=NCCCCC2)cc1,8.92%
11,CC(C)CC(=O)NC(=S)Nc1ccc(N2CCOCC2)cc1,-0.887%
12,N/C(=N\OS(=O)(=O)c1cc(Cl)ccc1Cl)c1ccncc1,-7.66%
13,Cc1ccc(N=C(NOCc2ccc(Cl)cc2Cl)c2nonc2N)c(C)c1,4.49%
14,COC(=O)C1C2CCC(C2)C1C(=O)OCC(=O)c1ccccc1 (centres unmarked),-14.2%
15,Cc1ccc2nc(/C(C#N)=C\c3cc(C)n(-c4cccc([N+](=O)[O-])c4)c3C)[nH]c2c1,-1.29%
16,COc1cccc(C2c3[nH]c4ccccc4c3C[C@H]3C(=O)N(CCCCCO)CC(=O)N23)c1 (some centres unmarked),-64.9%
17,C[C@H](NC(=O)N1C[C@H]2C[C@@H](C1)c1cccc(=O)n1C2)C(=O)Nc1ccc(F)c(F)c1,10.6%
18,COc1cc(CO)c(OC)c([N+](=O)[O-])c1,24.4%
19,COc1ccc(C(=O)COC(=O)C(C)N2C(=O)C3C4CCC(C4)C3C2=O)cc1 (centres unmarked),3.1%
20,CC1=C(C(N)=O)C(c2ccco2)C(C(N)=O)=C(C)N1,26.2%
21,CC(C)(C)c1ccc(NC(=O)c2c(F)cccc2Cl)cc1,-8.54%
22,CN(CC(=O)N1CCCCC1)S(=O)(=O)c1cccc2cccnc12,-1.23%

row,Structure (SMILES),"hERG current change (%, negative = inhibition) at 10uM"
1,CCOc1ccccc1CN1CCCC(C(=O)c2cc(F)ccc2F)C1 (centres unmarked),-50.8%
2,COc1ccc([C@@H]2[C@@H]3C(=O)N(C(C)(C)C)C(=O)[C@@H]3[C@]3(C)C(=O)N(c4cccc(F)c4)C(=O)N23)cc1,11.8%
3,COCCCNC(=O)c1ccc(N2CCCC2)c(NS(=O)(=O)c2ccc(C)cc2)c1,-10.1%
4,Cc1ncc([N+](=O)[O-])n1CCOC(=O)C12CC3CC(CC(C3)C1)C2,3.68%
5,OCC1CCCN(C(=S)Nc2ccc(OC(F)F)cc2)C1 (centres unmarked),-1.17%
6,O=C(N/N=C/c1ccc(N2CCCCC2)o1)C(O)(c1ccccc1)c1ccccc1,20.2%
7,NS(=O)(=O)c1ccc(CNC(=O)/C=C/c2c(Cl)cccc2Cl)cc1,2.87%
8,O=C(C[N+]1(CC#Cc2ccccc2)CCOCC1)c1ccc(Cl)cc1.[Br-],-13.1%
9,CCc1ccccc1NC(=O)CSc1nnc([C@@H](N)Cc2ccccc2)o1.Cl,5.65%
10,COc1cc(NS(=O)(=O)c2ccc(NC(=O)c3cccnc3)cc2)ncn1,12.3%
11,CCCCCCCC(=O)N/N=C/c1cccnc1,-19.7%
12,CCc1nc2ccc(C(=O)NCCc3ccc(OC)c(OC)c3)cc2nc1CC,-0.0865%
13,FC(F)(F)c1cc(-c2cccs2)nc(NCc2ccco2)n1,19.3%
14,COc1cccc(CN2CCNC(=O)C2CC(=O)NCCc2ccccn2)c1 (centres unmarked),9.8%
15,COc1cccc(N/C(SCc2ccccc2C)=C(/C#N)C(=O)NCc2cccs2)c1,13.6%
16,COc1ccc(CN2CCN(c3ccccn3)CC2)c(OC)c1,-75.9%
17,COc1ccc(C(=O)C(C)Oc2cccc(NC(=O)c3cccc([N+](=O)[O-])c3)c2)cc1 (centres unmarked),2.74%
18,CCC(C)NC(=O)CN(c1cc(C)cc(C)c1)S(=O)(=O)c1c(C)[nH]c(=O)[nH]c1=O (centres unmarked),-4.18%
19,COc1ccc(CNC(=O)CNC(=O)c2c(C)nn(C)c2Cl)cc1,20.4%
20,COCCn1c(SCC(=O)N2CC(=O)Nc3ccccc32)nnc1-c1ccoc1C,5.11%
21,COC(=O)c1nnn(CC(=O)NC(=O)Nc2cccc(C)c2C)c1C(=O)OC,3.38%
22,CC(=O)NC1C(=O)N(CCN2CCOCC2)c2ccc(Br)cc21.Cl (centres unmarked),5.73%

row,Structure (SMILES),"hERG current change (%, negative = inhibition) at 10uM"
1,CCS(=O)(=O)n1nc(-c2ccccc2)nc1N,10%
2,COc1ccc(-n2c(COc3ccc4c(c3)OCO4)nnc2SCC(=O)O)cc1,8.69%
3,Fc1ccc2c(c1)/C(=N/Nc1ccccn1)CCS2,8.25%
4,CN(C)CCNC(=O)c1[nH]nc2c1CCc1ccccc1-2,-13.9%
5,CC(=O)OC1CSc2nc3ccccc3n2C1 (centres unmarked),-10.1%
6,Cc1cccc(NC(=O)CC2c3ccccc3Oc3ccccc32)c1,18%
7,COc1ccc(-c2cc(=O)c3ccccc3n2C)cc1,-7.23%
8,COc1ccc(Nc2nc(N)nc(CSc3nc(C)cc(C)n3)n2)cc1,17.5%
9,O=C(COC(=O)/C=C/c1cccc(Cl)c1)NCCc1ccccc1,0.0487%
10,CCNC(=O)CN(c1ccc(Br)c(C)c1)S(C)(=O)=O,23.4%
11,Cc1cc(C)n(C(=O)c2ccc([N+](=O)[O-])cc2Cl)n1,13.3%
12,Cc1ccc(OCCOCCNC(C)(C)C)c([N+](=O)[O-])c1.O=C(O)C(=O)O,0.542%
13,CCOc1cc2c(cc1OCC)C(c1ccc(OC)cc1)N(c1ccccc1)C(=O)C2 (centres unmarked),-57.5%
14,COc1ccc(-c2nc3cc(NC(=O)c4ccc5c(c4)OCO5)ccc3o2)cc1,7.07%
15,Cc1cc(Cl)c2oc(C(=O)N3CCCCC3CCN3CCCC3=O)c(C)c2c1 (centres unmarked),-12.4%
16,CNC(=O)c1c[nH]c2ccc(S(=O)(=O)Nc3cccc(SC)c3)cc2c1=O,18.7%
17,Cc1ccc(NC(=O)CCC(=O)OCc2ccc(Br)cc2)cc1,20.6%
18,CCN(CC)S(=O)(=O)c1ccc(C(=O)NCc2n[nH]c(=S)n2-c2ccccc2OC)cc1,23.9%
19,Oc1cccc(C=Nc2cccc3ccccc23)c1O,27.6%
20,C=C(C)C(=O)Nc1cccnc1Oc1ccc(F)cc1,0.293%
21,Cc1cccc(NC(=O)c2ccc(S(=O)(=O)N(C)C)cc2)c1,-18.6%
22,O=C(CSc1ncnc2[nH]ncc12)Nc1nc(-c2ccc(F)c(F)c2)cs1,44.7%

row,Structure (SMILES),"hERG current change (%, negative = inhibition) at 10uM"
1,O=C(COC(=O)c1ccc(Cl)nc1)NC1CCCCCC1,-5.25%
2,COCCCNC(=O)Cn1nnc(-c2ccccc2NC(=O)c2ccccc2F)n1,-26.3%
3,Cc1ccc(CN2CCNC(=O)C2CC(=O)N(C)C(C2CC2)C2CC2)o1 (centres unmarked),11.8%
4,CC(C)c1ccc(S(=O)(=O)c2nnn3c2nc(N2CCCCC2)c2ccccc23)cc1,4.98%
5,Nc1cnc(CNc2ccccc2Cl)cn1,2.07%
6,CCOc1ccc(C(=O)NCc2ccccc2OC)cc1,-12%
7,Cc1ccccc1NC(=S)N/N=C1\CC(C)(C)Oc2ccc(O)cc21,42.1%
8,O=C(OC(C(=O)O)C(OC(=O)c1ccccc1)C(=O)NCc1ccccc1)c1ccccc1 (centres unmarked),15.3%
9,C=CCn1c(O)c(N=NC(=S)Nc2ccc(OC)cc2)c2ccccc21,5.27%
10,COc1ccc(CNC(=O)C2CCN(S(=O)(=O)c3ccc4c(c3)NC(=O)CO4)CC2)cc1,16.7%
11,CCc1ccc(-c2nc(CS(=O)CC(=O)NCc3ccco3)c(C)o2)cc1 (centres unmarked),1.94%
12,CN1CCN(C(=O)c2ccccc2-c2nc(-c3ccc(Cl)cc3)no2)CC1,-65.6%
13,Clc1ccc(C2=CSC3=NCCN23)c(Cl)c1.[Br-],-59.4%
14,CCCCNC(=O)CCc1c(C)nc2nc(-c3cc(OC)cc(OC)c3)nn2c1C,-37.5%
15,COc1ccc(C2=C(C)C(N3CCN(C(=O)c4ccco4)CC3)=NS2(=O)=O)cc1,-7.37%
16,CC(=O)Nc1ccccc1NC(=O)c1ccc(C)cc1C,23.7%
17,COc1ccc(CCN(C)c2ccc(S(=O)(=O)N3CCCC3)cn2)cc1OC,16%
18,COc1ccc(C(C#N)N2CCC(c3ccccc3)=N2)cc1 (centres unmarked),8.73%
19,Cc1nn(-c2ccccc2)c(C)c1C(=O)OCC(=O)Nc1ccccc1F,4.48%
20,O=c1[nH]c(-c2ccccc2F)nc2c1sc(=S)n2Cc1ccccc1,22.6%
